Test results reported in PMC4336329 (PLoS ONE, 2015).
In all, about 310,000 compounds went through this assay and about 2,200 (0.71%) showed an effect of 50% or more. The effect is printed as a negative number. The list shows a part of the results.

molecular target: human ether-à-go-go-related gene (hERG) potassium channel (human, UniProt Q12809); experiment: primary screen, population patch clamp on CHO cells stably expressing hERG
Sequence (Q12809 whole entry, looked up): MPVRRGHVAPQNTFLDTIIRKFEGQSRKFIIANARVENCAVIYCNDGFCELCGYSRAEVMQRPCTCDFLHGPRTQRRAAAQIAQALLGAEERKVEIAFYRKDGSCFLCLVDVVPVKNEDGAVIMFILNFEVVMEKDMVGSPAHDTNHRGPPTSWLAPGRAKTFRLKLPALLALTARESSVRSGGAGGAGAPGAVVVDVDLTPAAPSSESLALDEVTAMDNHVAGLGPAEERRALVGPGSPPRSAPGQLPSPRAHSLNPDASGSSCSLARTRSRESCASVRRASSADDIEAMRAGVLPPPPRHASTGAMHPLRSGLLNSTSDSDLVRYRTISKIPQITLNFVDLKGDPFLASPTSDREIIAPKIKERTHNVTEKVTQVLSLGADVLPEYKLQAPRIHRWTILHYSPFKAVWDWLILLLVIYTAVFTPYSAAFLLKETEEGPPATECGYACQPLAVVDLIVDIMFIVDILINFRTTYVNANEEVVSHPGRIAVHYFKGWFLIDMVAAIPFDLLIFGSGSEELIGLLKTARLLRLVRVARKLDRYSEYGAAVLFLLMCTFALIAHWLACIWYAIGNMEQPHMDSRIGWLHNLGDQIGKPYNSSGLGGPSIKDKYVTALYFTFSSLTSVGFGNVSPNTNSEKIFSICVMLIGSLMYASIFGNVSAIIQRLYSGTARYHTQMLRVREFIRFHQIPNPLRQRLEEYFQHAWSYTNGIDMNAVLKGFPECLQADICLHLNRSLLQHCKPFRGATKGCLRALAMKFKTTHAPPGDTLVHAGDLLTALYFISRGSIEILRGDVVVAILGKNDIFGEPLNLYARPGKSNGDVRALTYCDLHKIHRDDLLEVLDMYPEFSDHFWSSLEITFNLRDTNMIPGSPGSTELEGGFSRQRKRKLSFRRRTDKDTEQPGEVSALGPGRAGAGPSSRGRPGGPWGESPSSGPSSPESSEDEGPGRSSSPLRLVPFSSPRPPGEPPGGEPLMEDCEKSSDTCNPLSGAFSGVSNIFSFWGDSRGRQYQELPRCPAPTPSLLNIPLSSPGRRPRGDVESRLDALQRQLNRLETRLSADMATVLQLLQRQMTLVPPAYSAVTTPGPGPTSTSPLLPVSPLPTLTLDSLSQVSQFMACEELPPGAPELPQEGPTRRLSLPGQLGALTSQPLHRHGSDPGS

Structure (SMILES) | hERG current change (%, negative = inhibition) at 1uM
Cc1ccc(S(=O)(=O)N2CCN(c3ccccc3)CC2)cc1C(N)=O | -52%
COc1cccc(NC(=O)C(OC(=O)c2ccc([N+](=O)[O-])o2)c2ccccc2)c1 (stereo not drawn) | 14.2%
CC(C)C(=O)NCCc1nc2ccccc2n1CCc1ccccc1 | 13.4%
Cc1ccc(CN2CCNC(=O)C2CC(=O)NCC(F)(F)F)o1 (stereo not drawn) | 12.5%
CCOC(=O)N1CCN(C(=O)C2CCCN(S(C)(=O)=O)C2)CC1 (stereo not drawn) | 14.9%
Cc1cccc(/C=N/N2CCN(c3ccccc3)CC2)c1 | 5.69%
Cc1ccc(SCC(=O)NC(C)c2ccccc2)cc1 (stereo not drawn) | 10.3%
CCc1ccccc1NC(=O)CSc1n[nH]c(C)c1[N+](=O)[O-] | 3.17%
N#C/C(=N\Nc1c(Cl)cccc1Cl)C(=O)NN | 12.9%
O=C(C1=C[C@@H]2[C@H]3C(=O)N(c4cccc(Cl)c4)C(=O)[C@H]3[C@@H](C(=O)c3ccc(Cl)cc3)N2C=C1)c1ccccc1 | 10.2%
O=C(Cc1ccccc1)N1CCN(C/C=C/c2ccccc2)CC1 | -6.02%
CCOC(=O)C1CCN(C(=O)/C=C/c2ccc(OC)cc2)CC1 | -5.2%
COc1cc(NC(=O)COC(=O)c2cnccn2)c(C)cc1[N+](=O)[O-] | 9.12%
CCN(CC)CCCn1c(=S)[nH]c2cc(OC)c(OC)cc2c1=O | 3.77%
Cc1ccc2c(c1)NC(=O)C(CC(=O)NCCN(CC(C)C)CC(C)C)O2 (stereo not drawn) | 0.19%
O=C(CCc1nc2ccccc2s1)Nc1ccccc1 | 19.2%
NNC(=O)CNC(=O)CNS(=O)(=O)c1ccccc1 | 5.81%
Cc1ccc(S(=O)(=O)Nc2ccc3c(c2)ncn3C(C)(C)C)cc1 | -7.29%
COc1cc(C(=O)NC2CCCc3ccccc32)cc(OC)c1OC (stereo not drawn) | 11.5%
O=C(CN1C(=O)COc2ccc(Cl)cc21)Nc1ccc(N2CCOCC2)cc1 | 14.4%
CC(=O)c1cnc2nc(SCc3ccccc3)nn2c1C | 11.4%
O=C(C1CCCN(S(=O)(=O)c2cc(Cl)ccc2Cl)C1)N1CCOCC1 (stereo not drawn) | 6.01%

Structure (SMILES) | hERG current change (%, negative = inhibition) at 1uM
COc1ccc(N)c2c1OCCC2=O | -2.82%
Nc1nc2n(n1)C(c1cccc(Cl)c1)CC(c1ccc(F)cc1)N2 (stereo not drawn) | -9.33%
CCOc1ccc2nc(Nc3nc(CSc4nnnn4-c4ccccc4)cc(=O)[nH]3)nc(C)c2c1 | 13.5%
O=C(NC1CCC(O)CC1)c1ccccc1OCc1ccc(F)cc1 (stereo not drawn) | 0.37%
CCSCc1nnc(SCC(=O)Nc2cc(F)ccc2C)n1C | 9.18%
CC1=CC(C)(C)N2C(=O)C3(C(C#N)=C(N)Oc4cc(C)oc(=O)c43)c3cccc1c32 (stereo not drawn) | 7%
COc1cccc(C2C3=C(N=C4SCC(=O)N42)c2ccccc2CC3)c1OC (stereo not drawn) | -0.0544%
COc1ccccc1/C=C/C(=O)Nc1cccnc1Cl | 20.2%
N#Cc1nnn(-c2ccc(Cl)cc2)c1N | 11.1%
C=C(C)C(=O)N1CC2(CC(c3cccc(NC(=O)/C=C\C)c3)=NO2)C[C@H]1C(N)=O (stereo partly drawn) | 6.91%
O=S(=O)(c1cccc(-c2cn3cccnc3n2)c1)N1CCCCCC1 | -4.89%
Cc1ccc(NC(=O)[C@@H]2CCCN2C(=O)[C@@H]2Cc3ccccc3CN2)c(C)c1 | 13.2%
COc1ccc(S(=O)(=O)N2CCN(Cc3ccccc3[N+](=O)[O-])CC2)cc1 | 10.3%
CC1(C)NC(=O)N(CCCOc2ccc3c(c2)CCC3)C1=O | -9.06%
Cc1ccc(C)c(NC(=O)c2ccccc2O)c1 | 10.5%
O=c1[nH]c(O)c(C=Nc2cc(F)cc(F)c2)c(=O)[nH]1 | 8.43%
O=C(Nc1ccc2c(c1)OCCO2)c1cccc(Br)c1 | 12.9%
COc1cc(/C=N/NC(=O)c2cc(-c3ccccc3C)nc3ccccc23)cc(OC)c1O | 14.9%
O=C(COc1ccc2c(c1)OCO2)Nc1nnc(Cc2ccccc2)s1 | 28.4%
O=C(c1ccco1)N1CCN(C(c2ccccn2)c2nnnn2C2CCCC2)CC1 (stereo not drawn) | 3.62%
O=[N+]([O-])c1ccc(O)c(/C=N/n2c(CO)nc3ccccc32)c1 | 12%
Cc1ccc(S(=O)(=O)c2nnn3c2nc(NC2CCN(Cc4ccccc4)CC2)c2ccccc23)cc1C | 10.6%

Structure (SMILES) | hERG current change (%, negative = inhibition) at 1uM
O=C(Nc1ccc(F)cc1)C(=O)c1cn(CC(=O)N2CCOCC2)c2ccccc12 | 13.4%
O=S(=O)(c1cccc(Cl)c1)N1CCC(c2nc3ccccc3[nH]2)CC1 | 6.83%
Cc1ccc(-c2nnc(SCC(=O)Nc3ccc(S(=O)(=O)N4CCCCCC4)cc3)o2)cc1 | 2.1%
O=C(CCCC(=O)N(CC(=O)NC1CCCCC1)Cc1ccccc1)Nc1ccccn1 | 11.4%
CCc1ccccc1NS(=O)(=O)c1ccc2[nH]cc(C(=O)NCc3ccco3)c(=O)c2c1 | 14.2%
Cc1c2cnn(CC(=O)O)c(=O)c2c(C)n1Cc1ccccc1 | 13.8%
Fc1ccc(C2CC(c3ccco3)n3ncnc3N2)cc1 (stereo not drawn) | 2.06%
Cc1ccc(Cn2c(Sc3ncccn3)nc3c2c(=O)[nH]c(=O)n3C)cc1 | 13.1%
COc1ccc(CCC(=O)Nc2sccc2C#N)cc1 | 7.37%
CC1(C)CC(=O)C=C(NCc2cccc(C(F)(F)F)c2)C1 | 1.96%
CCCCn1c(N)c(N(CCC(C)C)C(=O)c2ccc(COc3ccccc3)o2)c(=O)[nH]c1=O | 5.66%
CC(OC(=O)Cc1c(F)cccc1Cl)C(=O)NC1CCCCC1C (stereo not drawn) | 11.9%
COc1ccc(CN2C(=O)c3cccnc3C2Nc2cc(Cl)ccc2OC)cc1 (stereo not drawn) | 8.39%
COc1ccccc1NC(=O)c1nc(S(=O)(=O)Cc2ccccc2)ncc1Cl | 1.24%
COc1cc(C(=O)N(C)CC2CCN(CCc3cccc(C(F)(F)F)c3)CC2)ccc1C | -63.8%
O=C(CN(CCc1ccccc1)C(=O)c1csnn1)NCc1ccc(F)cc1 | 3.04%
Cc1nn(-c2ccc(F)cc2)c(C)c1CN1CCN(CCC(C)C)C(CCO)C1 (stereo not drawn) | -0.926%
O=C(NCc1cc(F)cc(C(F)(F)F)c1)C1CCC(=O)N(C2CCCC2)C1 (stereo not drawn) | -3.2%
CC(C)Cc1nc2sc3c(=O)n(N)cnc3c2c2c1COC(C)(C)C2 | 11.4%
C/C(CC(=O)N1CCN(C=O)CC1)=N\NC(=O)c1cccc([N+](=O)[O-])c1 | 8.7%
Cc1ccc(NC2=NCC(Cc3ccc(Br)cc3)S2)cc1 (stereo not drawn) | 10.3%
COC(=O)CNC(=O)COC(=O)C(Cc1ccccc1)NC(=O)c1ccco1 (stereo not drawn) | 16.5%

Structure (SMILES) | hERG current change (%, negative = inhibition) at 1uM
COc1ccc(CNC(=O)CCCC(=O)n2nc(C)c3ccccc32)cc1 | 12.7%
Cc1sc(-c2ccncc2)nc1OC(=O)c1ccccc1 | 8.49%
O=C(Nc1ccccc1)C(O)C(O)C(=O)Nc1ccccc1 (stereo not drawn) | 16.8%
CCOC(=O)c1ccc(NC(=O)c2sc3nc4n(c(=O)c3c2C)CCC4)cc1 | 9.71%
O=C(Nc1ccc(S(=O)(=O)N2CCOCC2)cc1)c1ccc2c(c1)S(=O)(=O)c1ccccc1C2=O | 12.2%
O=C(CSc1nnc(Cc2ccccc2)o1)Nc1cccc(F)c1 | -7.8%
CC(=O)Cn1ncc(N2CCOCC2)c(Cl)c1=O | 6.03%
Cc1cc(Nc2nc(Cl)c(Cl)cc2Cl)n(-c2ccccc2)n1 | 11%
O=C(CN1N=C(c2ccccc2)CCC1=O)NCc1cccs1 | 16%
Nc1nc(N2CCCCC2)nc(N2CCCCC2)n1 | -78.5%
CCCn1c(=S)[nH]c2cc(C(=O)N3CCN(C4CCCCC4)CC3)ccc2c1=O | 13.2%
CCCC(O)(CCC)C(=O)NNc1ccccc1 | 9.21%
CCc1[nH]nc2c1C(c1cccc(OC(=O)N3CCOCC3)c1)C(C#N)=C(N)O2 (stereo not drawn) | 16.7%
CCOC(=O)[C@@H]1[C@H]2COc3ccccc3[C@H]2N2C(=O)N(c3ccc(C(F)(F)F)cc3)C(=O)[C@]12C | 13.2%
CC(=O)N1N=C(c2ccc(NS(C)(=O)=O)cc2)CC1c1ccc2nccnc2c1 (stereo not drawn) | -24.2%
Cc1ccc(C(=O)NC(NC(=O)c2ccc(C)cc2)C(Cl)Cl)cc1 | 15.4%
COc1cccc(Nc2ncnc3sc(C)cc23)c1.Cl | 5.64%
COP(=O)(OC)Oc1ccc(C(O)C(Cl)(Cl)Cl)cc1 (stereo not drawn) | 16.7%
COc1ccccc1NC(=O)N(Cc1ccco1)Cc1cc2cccc(C)c2[nH]c1=O | 5.98%
O=C(NC(=S)Nc1ccc(N2CCOCC2)c(Cl)c1)c1cccs1 | 6.45%
CCCNC(=O)c1onc(CS(=O)(=O)c2cccc(OC)c2)c1C(=O)NCCC | 15.5%
